# Experimental data published in article PMC4336329 (PLoS ONE, 2015).
# The campaign covered roughly 310,000 compounds. About 14,000 (4.5%) showed an effect of 50% or more. The effect is printed as a negative number. The list shows a part of the results.
# Target: human ether-à-go-go-related gene (hERG) potassium channel (human, UniProt Q12809)
# Assay: primary screen, population patch clamp on CHO cells stably expressing hERG
# 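Further: peak tail current of the secondary pulse compared with the same well before compound.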
# Sequence of human ether-à-go-go-related gene (hERG) potassium channel (Q12809 whole entry, looked up): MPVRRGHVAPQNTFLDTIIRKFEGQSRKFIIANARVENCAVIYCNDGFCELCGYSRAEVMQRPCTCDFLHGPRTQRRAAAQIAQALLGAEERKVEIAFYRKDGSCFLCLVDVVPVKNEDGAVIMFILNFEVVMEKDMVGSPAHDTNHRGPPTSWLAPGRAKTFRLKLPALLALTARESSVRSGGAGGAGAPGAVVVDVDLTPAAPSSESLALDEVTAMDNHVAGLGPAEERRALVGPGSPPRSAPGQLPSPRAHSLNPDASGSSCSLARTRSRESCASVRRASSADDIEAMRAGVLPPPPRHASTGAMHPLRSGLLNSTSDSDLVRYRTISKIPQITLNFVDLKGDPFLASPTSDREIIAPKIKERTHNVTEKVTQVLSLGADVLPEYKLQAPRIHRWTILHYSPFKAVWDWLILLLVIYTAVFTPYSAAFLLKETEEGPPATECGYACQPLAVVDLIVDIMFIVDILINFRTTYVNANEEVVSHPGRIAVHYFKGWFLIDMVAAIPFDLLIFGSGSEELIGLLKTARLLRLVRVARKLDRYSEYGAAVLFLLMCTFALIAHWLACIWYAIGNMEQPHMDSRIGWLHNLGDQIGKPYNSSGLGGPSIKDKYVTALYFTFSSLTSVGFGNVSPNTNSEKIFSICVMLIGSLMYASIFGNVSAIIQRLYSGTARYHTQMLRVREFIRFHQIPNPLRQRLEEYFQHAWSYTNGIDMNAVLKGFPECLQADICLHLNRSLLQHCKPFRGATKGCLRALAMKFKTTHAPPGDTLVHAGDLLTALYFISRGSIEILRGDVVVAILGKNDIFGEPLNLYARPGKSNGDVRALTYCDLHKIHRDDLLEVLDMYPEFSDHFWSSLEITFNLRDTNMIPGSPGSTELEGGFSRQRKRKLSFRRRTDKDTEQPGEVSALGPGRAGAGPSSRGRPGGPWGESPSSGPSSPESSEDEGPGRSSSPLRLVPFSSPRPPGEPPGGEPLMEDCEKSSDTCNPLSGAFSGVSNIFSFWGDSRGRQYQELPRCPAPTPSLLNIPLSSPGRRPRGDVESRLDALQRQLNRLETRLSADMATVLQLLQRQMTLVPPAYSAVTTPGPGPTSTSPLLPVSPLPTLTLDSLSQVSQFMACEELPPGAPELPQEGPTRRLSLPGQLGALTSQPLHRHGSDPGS
row,SMILES,"hERG current change (%, negative = inhibition) at 10uM"
1,COc1ccc(CCN(C)CCC(=O)Nc2cc(C)ccc2C)cc1OC,-55.6%
2,CCN1C(=O)C(CC(=O)Nc2ccc(OC)cc2)N(Cc2ccc(OC)c(OC)c2)C1=S (stereo not drawn),-14.4%
3,Cc1ccc(C(=O)c2c[nH]c3c(F)cc(F)cc3c2=O)cc1,1.03%
4,N#Cc1ccc(Cl)cc1NC(=O)COC(=O)[C@H](CCC(N)=O)NC(=O)c1ccc(F)cc1,1.75%
5,COc1ccc(/C=C/c2c([N+](=O)[O-])c(=O)n(C)c(=O)n2C)c(OC)c1,3.51%
6,Cc1ccc(Cn2nnc(C(=O)Nc3cccc(C)c3C)c2N)cc1,1.41%
7,COc1ccc(C2CC(=O)C3=C(C2)Nc2ccccc2N(C(=O)CCC(=O)O)C3c2ccc(F)cc2)cc1 (stereo not drawn),2.56%
8,Cc1cccc(CS(=O)(=O)Cc2ccc(C(=O)NCc3cccs3)o2)c1,-38.8%
9,Fc1ccc2nc3[nH]c4ccccc4c3nc2c1,11.1%
10,O=S(=O)(c1ccc(N2CCN(S(=O)(=O)c3ccccc3)CC2)nc1)N1CCCC1,9.03%
11,Cc1ccc(S(=O)(=O)C2(S(=O)(=O)c3ccc(C)cc3)CCCC2)cc1,-23.9%
12,Cc1cccnc1NC(=O)Nc1ccccc1,1.64%
13,Cc1nc(N)nc(COc2ccccc2)n1,16.6%
14,CCOC(=O)COn1c(=O)c(-c2ccccc2)[n+]([O-])c2ccccc21,3.61%
15,Cc1ccccc1OCC(=O)OC1CCN(C)CC1.Cl,2.02%
16,Cc1ccnc(NC(=O)CN(C)S(=O)(=O)c2cccc3nsnc23)c1,7.8%
17,CC(C)C(=O)N1CC(=O)Nc2ccc(F)cc2C1c1ccc(F)cc1 (stereo not drawn),-2.87%
18,O=C(NCCNC(=O)c1cnccn1)c1ccc(Cl)cc1,-5.33%
19,CCCn1cccc(C(=O)Nc2ccc(OC)cc2)c1=O,-22.5%
20,COc1ccc(NC(=O)CN2CCC(C)CC2)c([N+](=O)[O-])c1,-12.6%
21,CCc1ccc(C2=C/C(=C/c3cccnc3)C(=O)O2)cc1,3.06%
22,COC(=O)C1=C(C)NC2=C(C(=O)CCC2)C1c1coc2ccccc2c1=O (stereo not drawn),1.35%

row,SMILES,"hERG current change (%, negative = inhibition) at 10uM"
1,COc1cccc(C(=O)CSc2nnc(-c3cccs3)o2)c1,-3.51%
2,Cc1ccccc1NC(=O)Nc1nnc(Cc2ccc([N+](=O)[O-])cc2)s1,2%
3,O=C(CN1C(=O)NC2(CCCC2)C1=O)OCc1c(F)cccc1Cl,6.15%
4,Cc1ccc(-c2noc(-c3ccccc3F)n2)cc1,16.4%
5,CCCCN1C2CCCC1CC(NC(=O)c1cccc(Cl)c1)C2 (stereo not drawn),-75.5%
6,O=C(CSc1ccc2nnc(-c3ccccn3)n2n1)Nc1ccccc1C(F)(F)F,-23.9%
7,O=C(c1ccc(F)c([N+](=O)[O-])c1)N1CC2CC(C1)c1cccc(=O)n1C2 (stereo not drawn),0.448%
8,CCN(CC)C(=O)N1CCN(S(=O)(=O)c2ccc(C)cc2)CC1,-13.5%
9,C=CCNC(=O)c1c[nH]c2ccc(S(=O)(=O)N(C)c3ccc(OCC)cc3)cc2c1=O,12.9%
10,CC(C)N(CCNC(=O)C1CCCN(c2ncnc3c2nc2n3CCCCC2)C1)Cc1ccccc1 (stereo not drawn),-37.3%
11,O=C(O)CCN1C(=O)c2ccc(NC(=O)CSc3ccc(Cl)cc3)cc2C1=O,21%
12,CC(C)[C@H]1CN(C)CCN1Cc1cn(C)nc1-c1cccc(Cl)c1,-27%
13,O=[N+]([O-])c1ccc(N2CCOCC2)c(S(=O)(=O)N2CCOCC2)c1,-20%
14,O=C1N/C(=N/N=C/c2ccccc2O)SC1Cc1ccc(F)cc1 (stereo not drawn),19.6%
15,Cc1cn(S(=O)(=O)c2ccc(Cl)cc2)c(C)n1,-21.8%
16,Cc1noc(C)c1CSc1nnc(-c2ccccc2)o1,7.8%
17,CCOC(=O)c1[nH]c(C)c(C(=O)OCc2c(C)noc2C)c1C,-4.38%
18,O=S(=O)(c1ccc(OCC(O)CNC23CC4CC(CC(C4)C2)C3)c(Cl)c1)N1CCOCC1 (stereo not drawn),5.97%
19,O=C(NCC(=O)N1CCCCCCC1)c1ccc(Cl)cc1,1.14%
20,O=Cc1ccc(-c2ccccc2C(=O)O)o1,15.5%
21,Cc1[nH]c2ccccc2c1-c1csc(NC(=O)CSCC(=O)O)n1,-1.46%
22,Cc1cc(=O)[nH]c(N/N=C/c2ccc([N+](=O)[O-])cc2)n1,3.44%

row,SMILES,"hERG current change (%, negative = inhibition) at 10uM"
1,O=C(Oc1cccc(/C=N/NC(=O)c2ccccn2)c1)c1ccc([N+](=O)[O-])cc1,21.5%
2,CCOC(=O)[C@H]1[C@H]2COc3ccc(OC)cc3[C@@H]2N2C(=O)c3ccc(Cl)cc3NC(=O)[C@@]12C,-28.5%
3,CCC(Cc1ccccc1)NC(=O)C1=C(C)C(=O)OC12CCC(C)CC2 (stereo not drawn),3.74%
4,O=C1Cc2ccccc2C(c2ccc(Cl)cc2Cl)N1 (stereo not drawn),-14.1%
5,COc1ccccc1NC(=O)CCS(=O)(=O)c1ccc2c(c1)NC(=O)C(C)S2 (stereo not drawn),-4.76%
6,CCCN1C(=O)C(O)(C/C(C)=N/O)c2ccccc21 (stereo not drawn),9.14%
7,O=C(COc1ccccc1C(=O)NCc1ccccc1)Nc1ccccc1,-15%
8,CC(C)=CC(=O)OCC(=O)Nc1ccc(Cl)cn1,13.5%
9,COc1cc2c(cc1OC)C(C(=O)N1CCC3(CC1)OCCO3)C(c1ccccc1F)N(C)C2=O (stereo not drawn),7.45%
10,O=c1[nH]oc(O)c1-c1ncc(C(F)(F)F)cc1Cl,3.92%
11,CC(=O)NCC(=O)OCC(=O)Nc1nc(-c2ccccc2)cs1,30.4%
12,CS(=O)(=O)N(CC(=O)NCc1ccco1)c1ccc(OCc2ccccc2)cc1,-0.371%
13,CC[C@H](C)[C@@H]1NC(=O)c2cc([N+](=O)[O-])cc(F)c2NCCCC[C@@H](C(N)=O)NC(=O)[C@H](CCCCN)NC1=O,11.4%
14,CCOC(=O)NC(=O)c1cn(CCNCCO)c(=O)[nH]c1=O,25.7%
15,Cc1cccc(NC(=S)N2CCCCC2)c1,-3.73%
16,O=Cc1ccc(N2Cc3ccccc3C2)cc1,10.5%
17,Cc1coc2c(O)cc3c(c12)OC1(N2CCCCC2)C(=O)NCCCC31 (stereo not drawn),-3.64%
18,O=C(NC1CCCCC1)C(c1ccncc1)N(Cc1ccc(F)cc1)C(=O)c1ccccn1 (stereo not drawn),-5.49%
19,COc1cccc(OC)c1NC(=O)NC(=O)c1c(OC)c(Br)cc([N+](=O)[O-])c1OC,-13.6%
20,O=c1cnnc(Nc2ccc(Cl)c(C(F)(F)F)c2)[nH]1,18.6%
21,Cc1cc2cc3c(cc2nc1SCC(=O)Nc1ccccc1)CCC3,-0.42%
22,O=C(CCCCCN1C(=O)c2ccccc2C1=O)NCCc1nc2ccccc2[nH]1,-5.88%

row,SMILES,"hERG current change (%, negative = inhibition) at 10uM"
1,Cc1ccc(-c2nnc(CCC(=O)NCC3C4CC5CC(C4)CC3C5)o2)s1 (stereo not drawn),-6.1%
2,COC(=O)CCNS(=O)(=O)c1ccc2ccccc2c1,8.33%
3,O=C(Cc1ccccc1)Nc1ccc2oc(-c3ccncc3)nc2c1,0.815%
4,COc1cccc(C(=O)Nc2nc3ccccc3[nH]2)c1,3.82%
5,CCOc1ccc(NC(=O)c2cccc3c2C(=O)N(Cc2cccnc2)C3)cc1,-22%
6,Cc1ccccc1NC(=O)Cc1nc(COC(=O)c2nc(Cl)ccc2Cl)cs1,-37.2%
7,Cc1cc(C)c(S(=O)(=O)Nc2cnc3ccccc3c2)c(C)c1,11.7%
8,CC(C)CCNC(=O)c1sc2ccc(S(=O)(=O)N3CCCCC3)cc2c1N,-0.722%
9,CCOc1ccc(NS(=O)(=O)c2ccc(C(=O)NCC(c3ccccc3OC)N3CCCC3)cc2)cc1 (stereo not drawn),-26.6%
10,CCN(CC)CCCNC(=O)c1cc2nc(-c3ccccc3)cc(C(F)(F)F)n2n1,-8.1%
11,COc1ccc2c3c(cccc13)N(C)N=C2C,0.0924%
12,CC(Cc1ccccc1)C(=O)Nc1ccccc1 (stereo not drawn),0.888%
13,CCCNC(=O)c1ccc(Cn2cc(-c3ccc(OC)cc3)nc2C(C)N)cc1 (stereo not drawn),-15.2%
14,COc1cc(C2C(C#N)=C(N)OC3=C2C(=O)CCC3)ccc1OC(=O)N1CCOCC1 (stereo not drawn),2.56%
15,COc1ccc(Cl)cc1S(=O)(=O)N1CCCC1,-11%
16,COc1ccc(OCC(=O)Nc2cc(-c3nn(C)c(=O)c4ccccc34)ccc2N2CCOCC2)cc1,9.34%
17,CC(=O)c1ccc(OCCCC(=O)Nc2cc(S(=O)(=O)N(C)C)ccc2C)cc1,0.514%
18,O=C(O)c1ccc(-n2c(O)c(C=C3N=c4ccccc4=N3)sc2=S)cc1,-4.72%
19,Cc1cc(C)cc(NC(=O)C2CCCN(S(=O)(=O)c3c(C)noc3C)C2)c1 (stereo not drawn),-4.34%
20,CC1CCN(S(=O)(=O)c2ccc(NC(=O)CN3CCN(c4ccccc4)CC3)cc2)CC1,-58.2%
21,C=CCOc1cccc(C2/C(=C(/O)c3ccc4c(c3)CC(C)O4)C(=O)C(=O)N2CCN2CCOCC2)c1 (stereo not drawn),8.7%
